Laboratory results from the supplement of paper PMC4967469.

How the values were obtained:
Assay in all cases: Viability of human cancer cell lines after 72 h of drug (GDSC screen)
CCT007093 = compound: O=C1/C(=C/c2cccs2)CC/C1=C\c1cccs1 [CCT007093]; conditions: top dose 6.6 µM; top dose inferred
Description: (§1)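 Human cancer cell lines in 384-well plates, medium with 10% serum, drug for 72 h over a 256-fold dose range (nine 2-fold or five 4-fold steps up to the top dose). Adherent lines were fixed and stained with the nucleic acid dye Syto60, suspension lines read with resazurin; signal relative to control wells, capped at 0 and 100%. One two-parameter sigmoid per drug and line, fitted in a mixed model over all curves with the slope shared within a line.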

BAY 61-3606 = compound: COc1ccc(-c2cc3nccn3c(Nc3ncccc3C(N)=O)n2)cc1OC [BAY 61-3606]; conditions: top dose 8 µM; top dose inferred
Description: as §1

KIN001-266 = compound: CCN1CCC(n2cc(CNc3cc(Cl)c4ncc(C#N)c(Nc5ccc(F)c(Cl)c5)c4c3)nn2)CC1 [KIN001-266]; conditions: top dose 20 µM; top dose inferred
Description: as §1

QL-XII-47 = compound: C=CC(=O)N1CCc2ccc(-n3c(=O)ccc4cnc5ccc(-c6cnn(C)c6)cc5c43)cc21 [QL-XII-47]; conditions: top dose 10.24 µM; top dose inferred
Description: as §1

Cell Line | AUC (CCT007093) | pIC50 (CCT007093) | AUC (BAY 61-3606) | pIC50 (BAY 61-3606) | AUC (KIN001-266) | pIC50 (KIN001-266) | AUC (QL-XII-47) | pIC50 (QL-XII-47)
LS-180 (large intestine, adherent) | 0.984 | < 5.18 | 0.768 | 5.47 | 0.929 | < 4.70 | 0.857 | < 4.99
SUP-T1 (T-cell lymphoblastic leukaemia, suspension) | 0.99 | < 5.18 | 0.746 | 5.63 | 0.873 | 4.79 | 0.592 | 5.95
VM-CUB-1 (bladder, adherent) | 0.989 | < 5.18 | 0.954 | < 5.10 | 0.865 | 4.78 | 0.936 | < 4.99
EB-3 (Burkitt lymphoma, suspension) | 0.977 | < 5.18 | 0.755 | 5.51 | 0.762 | 5.08 | 0.535 | 6.09
NB(TU)1-10 (neuroblastoma, adherent) | 0.968 | < 5.18 | 0.674 | 5.85 | 0.861 | 4.87 | 0.992 | < 4.99
KINGS-1 (glioma, adherent) | 0.931 | < 5.18 | 0.966 | < 5.10 | 0.86 | < 4.70 | 0.869 | < 4.99
CAMA-1 (breast, adherent) | 0.939 | < 5.18 | 0.962 | < 5.10 | 0.861 | < 4.70 | 0.743 | 5.41
MKN28 (stomach, adherent) | 0.958 | < 5.18 | 0.805 | 5.38 | 0.85 | 4.80 | 0.762 | 5.43
KYSE-450 (oesophagus, adherent) | 0.983 | < 5.18 | 0.73 | 5.67 | 0.859 | 4.82 | 0.432 | 6.38
TE-1 (oesophagus, adherent) | 0.963 | < 5.18 | 0.982 | < 5.10 | 0.927 | < 4.70 | 0.8 | 5.18
NCI-H322M (lung adenocarcinoma, suspension) | 0.967 | < 5.18 | 0.985 | < 5.10 | 0.864 | < 4.70 | 0.825 | 5.09
H2869 (mesothelioma, adherent) | 0.973 | < 5.18 | 0.879 | < 5.10 | 0.983 | < 4.70 | 0.745 | 5.41
NB10 (neuroblastoma, adherent) | 0.986 | < 5.18 | 0.827 | 5.32 | 0.856 | 4.81 | 0.899 | < 4.99
NOMO-1 (acute myeloid leukaemia, suspension) | 0.9 | < 5.18 | 0.835 | 5.20 | 0.802 | 4.94 | 0.556 | 6.03
SNU-387 (liver, adherent) | 0.984 | < 5.18 | 0.753 | 5.52 | 0.847 | 4.74 | 0.59 | 5.93
NB7 (neuroblastoma, adherent) | 0.956 | < 5.18 | 0.669 | 5.82 | 0.855 | 4.77 | 0.714 | 5.57
UACC-257 (melanoma, adherent) | 0.911 | < 5.18 | 0.982 | < 5.10 | 0.705 | 5.26 | 0.735 | 5.44
HH (T-cell leukaemia, suspension) | 0.955 | < 5.18 | 0.86 | < 5.10 | 0.673 | 5.35 | 0.551 | 6.03
SR (lymphoid neoplasm, suspension) | 0.952 | < 5.18 | 0.519 | 6.25 | 0.773 | 5.15 | 0.375 | 6.52
LC4-1 (lymphoblastic leukaemia, suspension) | 0.979 | < 5.18 | 0.821 | 5.28 | 0.845 | 4.77 | 0.638 | 5.79

Cell Line | AUC (CCT007093) | pIC50 (CCT007093) | AUC (BAY 61-3606) | pIC50 (BAY 61-3606) | AUC (KIN001-266) | pIC50 (KIN001-266) | AUC (QL-XII-47) | pIC50 (QL-XII-47)
NCI-H2110 (non-small cell lung carcinoma, adherent) | 0.983 | < 5.18 | 0.885 | < 5.10 | 0.633 | 5.53 | 0.716 | 5.58
Hs766T (pancreas, adherent) | 0.974 | < 5.18 | 0.922 | < 5.10 | 0.956 | < 4.70 | 0.948 | < 4.99
NB5 (neuroblastoma, adherent) | 0.971 | < 5.18 | 0.925 | < 5.10 | 0.81 | 4.97 | 0.748 | 5.48
Saos-2 (osteosarcoma, adherent) | 0.981 | < 5.18 | 0.862 | < 5.10 | 0.973 | < 4.70 | 0.961 | < 4.99
GDM-1 (acute myeloid leukaemia, suspension) | 0.987 | < 5.18 | 0.553 | 6.16 | 0.871 | 4.76 | 0.439 | 6.36
PANC-08-13 (pancreas, adherent) | 0.962 | < 5.18 | 0.857 | < 5.10 | 0.791 | 4.92 | 0.571 | 5.98
A101D (melanoma, adherent) | 0.981 | < 5.18 | 0.694 | 5.70 | 0.851 | < 4.70 | 0.972 | < 4.99
G-292 Clone A141B1 (osteosarcoma, adherent) | 0.864 | < 5.18 | 0.868 | < 5.10 | 0.948 | < 4.70 | 0.865 | < 4.99
HUTU-80 (digestive system, adherent) | 0.991 | < 5.18 | 0.716 | 5.74 | 0.891 | 4.79 | 0.308 | 6.68
RL (B-cell lymphoma, suspension) | 0.984 | < 5.18 | 0.99 | < 5.10 | 0.869 | 4.80 | 0.738 | 5.54
SNB75 (glioma, adherent) | 0.979 | < 5.18 | 0.948 | < 5.10 | 0.979 | < 4.70 | 0.715 | 5.46
CAL-51 (breast, adherent) | 0.99 | < 5.18 | 0.808 | 5.46 | 0.978 | < 4.70 | 0.915 | < 4.99
NB12 (neuroblastoma, adherent) | 0.834 | 5.18 | 0.956 | < 5.10 | 0.91 | < 4.70 | 0.652 | 5.71
L-428 (Hodgkin lymphoma, suspension) | 0.992 | < 5.18 | 0.866 | 5.24 | 0.94 | < 4.70 | 0.909 | < 4.99
DBTRG-05MG (glioma, adherent) | 0.968 | < 5.18 | 0.846 | 5.13 | 0.868 | < 4.70 | 0.728 | 5.49
MS-1 (small cell lung carcinoma, suspension) | 0.99 | < 5.18 | 0.852 | 5.28 | 0.882 | 4.76 | 0.662 | 5.77
HCT-15 (large intestine, adherent) | 0.949 | < 5.18 | 0.801 | 5.38 | 0.884 | < 4.70 | 0.774 | 5.37
NCI-H1417 (small cell lung carcinoma, suspension) | 0.973 | < 5.18 | 0.934 | < 5.10 | 0.866 | < 4.70 | 0.816 | 5.15
SW1990 (pancreas, adherent) | 0.985 | < 5.18 | 0.883 | < 5.10 | 0.964 | < 4.70 | 0.969 | < 4.99
RPMI-7951 (melanoma, adherent) | 0.987 | < 5.18 | 0.796 | 5.44 | 0.876 | 4.73 | 0.42 | 6.41

Cell Line | AUC (CCT007093) | pIC50 (CCT007093) | AUC (BAY 61-3606) | pIC50 (BAY 61-3606) | AUC (KIN001-266) | pIC50 (KIN001-266) | AUC (QL-XII-47) | pIC50 (QL-XII-47)
MFE-319 (endometrium, adherent) | 0.98 | < 5.18 | 0.826 | 5.33 | 0.898 | < 4.70 | 0.986 | < 4.99
HOP-62 (lung adenocarcinoma, adherent) | 0.981 | < 5.18 | 0.709 | 5.71 | 0.875 | 4.71 | 0.545 | 6.07
COLO-668 (small cell lung carcinoma, adherent) | 0.981 | < 5.18 | 0.882 | < 5.10 | 0.862 | 4.77 | 0.453 | 6.32
GI-ME-N (neuroblastoma, adherent) | 0.931 | < 5.18 | 0.882 | < 5.10 | 0.824 | 4.74 | 0.584 | 5.93
KON (head and neck, adherent) | 0.986 | < 5.18 | 0.743 | 5.61 | 0.968 | < 4.70 | 0.982 | < 4.99
SK-CO-1 (large intestine, adherent) | 0.989 | < 5.18 | 0.922 | < 5.10 | 0.963 | < 4.70 | 0.989 | < 4.99
LN-229 (glioma, adherent) | 0.985 | < 5.18 | 0.916 | < 5.10 | 0.984 | < 4.70 | 0.909 | < 4.99
RCC10RGB (kidney, adherent) | 0.953 | < 5.18 | 0.857 | < 5.10 | 0.819 | < 4.70 | 0.746 | 5.17
HPAC (pancreas, adherent) | 0.894 | < 5.18 | 0.851 | < 5.10 | 0.951 | < 4.70 | 0.754 | 5.32
CCK-81 (large intestine, adherent) | 0.986 | < 5.18 | 0.928 | < 5.10 | 0.86 | 4.82 | 0.639 | 5.82
SHP-77 (small cell lung carcinoma, semi-adherent) | 0.991 | < 5.18 | 0.903 | < 5.10 | 0.883 | 4.76 | 0.752 | 5.51
SF268 (glioma, adherent) | 0.98 | < 5.18 | 0.76 | 5.52 | 0.856 | 4.74 | 0.647 | 5.77
UACC-893 (breast, adherent) | 0.934 | < 5.18 | 0.977 | < 5.10 | 0.863 | < 4.70 | 0.614 | 5.84
GAMG (glioma, adherent) | 0.936 | < 5.18 | 0.951 | < 5.10 | 0.852 | 4.78 | 0.453 | 6.32
LN-405 (glioma, adherent) | 0.911 | < 5.18 | 0.95 | < 5.10 | 0.854 | < 4.70 | 0.77 | 5.31
HCC1500 (breast, adherent) | 0.974 | < 5.18 | 0.968 | < 5.10 | 0.878 | < 4.70 | 0.67 | 5.71
CMK (acute myeloid leukaemia, suspension) | 0.972 | < 5.18 | 0.573 | 6.12 | 0.835 | 4.98 | 0.424 | 6.39
U-2-OS (osteosarcoma, adherent) | 0.98 | < 5.18 | 0.985 | < 5.10 | 0.985 | < 4.70 | 0.973 | < 4.99
NMC-G1 (glioma, adherent) | 0.982 | < 5.18 | 0.818 | 5.23 | 0.775 | 5.01 | 0.491 | 6.22
NCI-H847 (small cell lung carcinoma, adherent) | 0.993 | < 5.18 | 0.708 | 5.77 | 0.837 | 5.00 | 0.332 | 6.62

pIC50: −log10 of the molar value. By IC50 is meant the dose at which the fit gives 50% viability; fits outside the tested doses are given as limits. For AUC the same curve is integrated over the 256-fold range of doses and scaled to a fraction; it is 1 without any effect and falls as sensitivity rises. A top dose marked as inferred comes from the curve model; the source does not state it.
